± gives the standard deviation. Over roughly 5,500 sequences, “pre-steady-state target cleavage rate” has its median near 0.1; the highest 2% begin near 0.64. The list shows a part of the results, in another mix than the full data.
The sequences below were run on MIWI (PIWIL1) piRISC loaded with piRNA #2 (30 nt) (assay: pre-steady-state target cleavage rate (min^-1); MIWI and MILI are mouse PIWI proteins and EfPiwi is from a freshwater sponge; tags in brackets are library labels; higher = faster piRNA-guided slicing of the target). Conditions: guide: piRNA #2 5'p-UUAGGUAACCCAGUAGAUCCAGAGGAAUUC; auxiliary factor: 500 nM mouse GTSF1.
Outline: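 At 33 °C in HEPES–potassium acetate buffer, a transcribed, DNA-blocked target RNA library […] was exposed for 0–8 or 0–960 min to 1 nM active affinity-purified piRISC carrying a single synthetic guide, with or without 500 nM GTSF1 partner protein. Uncleaved targets were sequenced and normalised to depth and to weakly complementary targets. With three trials pooled and k3 capped at 0.0001 min^-1, a burst-and-steady-state fit produced the pre-steady-state cleavage rate.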

GAAUUCCCUGGAUCUACUGGGUUACCUAA and CUUAACCUCUCGAUCUACUGGGAUACCUAA are within error of each other in “pre-steady-state target cleavage rate” value: 0.41 ± 0.049 for the first, 0.35 ± 0.025 for the second.

CAAUUCUCUCUGGAUCUACUGGGUUACCUAA and CAAUUCCUCUGGAACUACUGGGUUACCAAA are within error of each other in “pre-steady-state target cleavage rate” value: 0.397 ± 0.055 for the first, 0.289 ± 0.055 for the second.

Going from CUUAUCCUCUGCAUCUACUGGGUUACCUAA to CUUAAGCUCUAGAUCUACUGGGUUACCUAA, the “pre-steady-state target cleavage rate” value falls from 0.362 ± 0.032 to 0.158 ± 0.017.

Going from CUUAAGCUCUGGAUCUACAGGGAUACCUAA to GAAAUCCUCUGGUUCUACUGGGUUACCUAA, the “pre-steady-state target cleavage rate” value rises from 0.0672 ± 0.011 to 0.624 ± 0.05.

GAAUUCCCUCUGGAUCUACUGGGUUACCUAA and CUUAAGGAAUGGAUCUACUGGGUUACCUAA are within error of each other in “pre-steady-state target cleavage rate” value: 0.26 ± 0.043 for the first, 0.219 ± 0.029 for the second.

CUUAUCGUCUGGAUCUACUGGGUAACCUAA and CUUAUCCUCUGGAUCUACUGGGUAUCCUAA are within error of each other in “pre-steady-state target cleavage rate” value: 0.124 ± 0.038 for the first, 0.121 ± 0.03 for the second.

Going from CUUAAGCUCUGGAUCUACUAGGUUACCUAA to CUUAAGGUCUGCUUCUACUGGGUUACCUAA, the “pre-steady-state target cleavage rate” value rises from 0.0534 ± 0.011 to 0.112 ± 0.028.

First: CUAUUCCCCUGGAUCUACUGGGUUACCUAA
Second: CUUAACCUCUGGAUCUACUGGGUUACCAUAA
The “pre-steady-state target cleavage rate” value of the first is higher: 0.498 ± 0.032 for the first, 0.248 ± 0.033 for the second.

Compared with GAAUUCCUCUGGAUCUACUGGGUUACUCUAA, GAAUUCCUCUGGUUCUACUCGGUUACCUAA is lower in “pre-steady-state target cleavage rate” value: 0.305 ± 0.046 for the first, 0.16 ± 0.017 for the second.

Compared with CUUAAGGUCAGGAUCUACAGGGUUACCUAA, CUUAAGCUCAGGAUCUACUGGGUUAGCUAA is higher in “pre-steady-state target cleavage rate” value: 0.0122 ± 0.0052 for the first, 0.0368 ± 0.012 for the second.

Compared with CUUAACCUCUGGAUCUACUGGGUUAUCCUAA, CUUUUCCUCUGGAGCUACUGGGUUACCUAA is higher in “pre-steady-state target cleavage rate” value: 0.207 ± 0.034 for the first, 0.386 ± 0.03 for the second.

Going from CUUAAGGAGACCUACUACUGAGUUACCUAA to “CUUAAGGUCUGGAUCUACUGGGUUACCUAU [g2:g23:cont:t1U]”, the “pre-steady-state target cleavage rate” value rises from 0.00666 ± 0.0026 to 0.275 ± 0.025.

Compared with CAAUUCCUGUGGAUCUACUGGGUAACCUAA, CUAUUCCUCUGGAACUACUGGGUUACGUAA is higher in “pre-steady-state target cleavage rate” value: 0.171 ± 0.035 for the first, 0.47 ± 0.031 for the second.

Compared with CUUAACCUGUGGAUCUACUGCGUUACCUAA, “CUUAAGGAGAGGAUCUACUGGGUUACCUAC [g2:g20:cont:t1C]” is lower in “pre-steady-state target cleavage rate” value: 0.247 ± 0.04 for the first, 0.0183 ± 0.0054 for the second.

First: GAAUUCCUCUGGAACAACUGGGUUACCUAA
Second: GAAUUCCUCUGGAACUAGUGGGUUACCUAA
The “pre-steady-state target cleavage rate” value of the first is higher: 0.397 ± 0.045 for the first, 0.221 ± 0.027 for the second.

First: CUUAAGGUCAGGAUCAACUGGGUUACCUAA
Second: CAAUUCCUACUGGAUCUACUGGGUUACCUAA
The “pre-steady-state target cleavage rate” value of the first is lower: 0.0181 ± 0.0069 for the first, 0.516 ± 0.056 for the second.

Compared with CUAUUCCUCUGGAUGUACUGGGUUAGCUAA, CUAUACCUCUCGAUCUACUGGGUUACCUAA is higher in “pre-steady-state target cleavage rate” value: 0.341 ± 0.032 for the first, 0.571 ± 0.052 for the second.

Going from CUUAAGGUCUCGAUCUACAGGGUUACCUAA to CUAUUCCACAGGAUCUACUGGGUUACCUAA, the “pre-steady-state target cleavage rate” value rises from 0.134 ± 0.02 to 0.386 ± 0.059.

Going from CUUUUCCUCCGGAUCUACUGGGUUACCUAA to CUUAAGGUCUAGAUCUACUGGGUUACCUAA, the “pre-steady-state target cleavage rate” value falls from 0.625 ± 0.096 to 0.249 ± 0.024.

Going from GAAUUCCUCUGGAUCUAGCUGGGUUACCUAA to CUUAUCCUCUGGACUCUACUGGGUUACCUAA, the “pre-steady-state target cleavage rate” value rises from 0.00367 ± 0.0036 to 0.159 ± 0.02.

First: CUUAAGCUCUGGAUCUACUGGGCUUACCUAA
Second: CAAUUCCUCUGCAUCUACUGGGUUACCUUA
The “pre-steady-state target cleavage rate” value of the first is lower: 0.0207 ± 0.007 for the first, 0.371 ± 0.054 for the second.

Compared with CUUAACCUCUGGAUGUACUCGGUUACCUAA, CUUUUCCUCUGGAUCUACUGCGUUACGUAA is higher in “pre-steady-state target cleavage rate” value: 0.102 ± 0.018 for the first, 0.44 ± 0.053 for the second.

First: CUUAACCUCUGGAUCUACUGGCUUUCCUAA
Second: CUUAAGCUCUCGAUCAACUGGGUUACCUAA
The “pre-steady-state target cleavage rate” value of the first is lower: 0.0273 ± 0.0076 for the first, 0.317 ± 0.025 for the second.

CUUAAGGAGUGGAAGUACUGGGUUACCUAA and CUUAAGGAGAGGAUGUACUGGGUUACGUAA are within error of each other in “pre-steady-state target cleavage rate” value: 0.0127 ± 0.0062 for the first, 0.00924 ± 0.0075 for the second.

Going from GAAUUGCUCUGGAUCUACUGGGUUAGCUAA to CUUAAGCUCUGGAAGAACUGGGUUACCUAA, the “pre-steady-state target cleavage rate” value falls from 0.395 ± 0.07 to 0.0546 ± 0.021.

Compared with GAAUUCCUCUGGAUCUACGGGGUUACCUAA, CUUAUCCUCUGGAUCUACUGGGUAUACCUAA is higher in “pre-steady-state target cleavage rate” value: 0.0615 ± 0.0083 for the first, 0.416 ± 0.051 for the second.

First: CUUAAGGAGACCUUCUACUGCGGUUACCUAA
Second: CUAUUCCUCUGGAUCAACUGGGUUUCCUAA
The “pre-steady-state target cleavage rate” value of the first is lower: 0.00469 ± 0.0026 for the first, 0.267 ± 0.056 for the second.

Going from CUUAAGGACUGGAUCUAGUGGGAUACCUAA to CAAUUCCUCUGCAUCUACUGGGUUACCAAA, the “pre-steady-state target cleavage rate” value rises from 0.00604 ± 0.0053 to 0.381 ± 0.055.

Compared with CUAUUCCUCUGGAUCUACUGGCUAACCUAA, GAAAACCUCUGGAUCUACUGGGUUACCUAA is higher in “pre-steady-state target cleavage rate” value: 0.0114 ± 0.0053 for the first, 0.113 ± 0.027 for the second.

CUUAUCCUCUGCAUCUAGUGGGUUACCUAA and GAUAUUCCUCUGGAUCUACUGGGUUACCUAA are within error of each other in “pre-steady-state target cleavage rate” value: 0.116 ± 0.013 for the first, 0.165 ± 0.038 for the second.

Compared with CUUAAGGUCUGGAUCAACUGGGUUACCUUA, CUUAUCCGUCUGGAUCUACUGGGUUACCUAA is higher in “pre-steady-state target cleavage rate” value: 0.0897 ± 0.014 for the first, 0.437 ± 0.054 for the second.

Compared with GAAUUCCUCUGGAUCUACUGGGUUACGCUAA, CUUAAGGACUGGAUCAACAGGGUUACCUAA is lower in “pre-steady-state target cleavage rate” value: 0.498 ± 0.049 for the first, 0.0104 ± 0.0083 for the second.

First: CUUAAGGAGAGCGAUCUACUGGGUUACCUAA
Second: CUUAAGGAUUGGAUCUACUGGGUUACCUAA
The “pre-steady-state target cleavage rate” value of the first is lower: 0.00514 ± 0.003 for the first, 0.185 ± 0.041 for the second.

First: CUUAAGGAGUGGAUCUACAGGGUUACCUUA
Second: GAAUUCCUCUGGAUCUACUCCGUUACCUAA
The “pre-steady-state target cleavage rate” value of the first is lower: 0.00843 ± 0.0024 for the first, 0.0299 ± 0.0075 for the second.

Going from CUUAAGGACUGGAUCUCCUGGGUUACCUAA to CUUAUCCUCUGGAUCAACAGGGUUACCUAA, the “pre-steady-state target cleavage rate” value rises from 0.0486 ± 0.027 to 0.21 ± 0.026.

Going from CUUAUCCUCAGGAUCUACUGGGUUAGCUAA to CUUAAGGACUGGAUCUACUGGGAUACCUUA, the “pre-steady-state target cleavage rate” value falls from 0.1 ± 0.036 to 0.0205 ± 0.018.

First: CUUAACCUCUGGAUCGUACUGGGUUACCUAA
Second: CUUAACCUCUGGAUCUACUGGGUUACCCUAA
The “pre-steady-state target cleavage rate” value of the first is lower: 0.00478 ± 0.0048 for the first, 0.0717 ± 0.018 for the second.

First: GAAUUCCUCUGGAUCUACUCGGUAACCUAA
Second: CUAUUCCUCUGGAUCUACUGGGUUAACCUAA
The “pre-steady-state target cleavage rate” value of the first is lower: 0.00964 ± 0.0052 for the first, 0.464 ± 0.054 for the second.

Compared with CUUAAGGUCUGGAUCUACUGGGUUACCUGAA, CUUAACCUCUGGAUGUACUGGGUUACCUUA is higher in “pre-steady-state target cleavage rate” value: 0.0645 ± 0.022 for the first, 0.261 ± 0.022 for the second.

Compared with CUUUUCCUCUGGAUCUACUGGGUUUGGUAA, CUUUAGGUCUGGAUCUACUGGGUUACCUAA is higher in “pre-steady-state target cleavage rate” value: 0.0711 ± 0.021 for the first, 0.145 ± 0.015 for the second.

Going from CUUAACCUCUGCAUCUACUGGGUUUCCUAA to CUUAAGGUCUGGAUCUUCUGGGUUACCUUA, the “pre-steady-state target cleavage rate” value rises from 0.0256 ± 0.0076 to 0.0759 ± 0.015.

Compared with CUUAUCGUCUGGAUCAACUGGGUUACCUAA, CUUAAGGUCUGGAUCUUCAGGGUUACCUAA is lower in “pre-steady-state target cleavage rate” value: 0.149 ± 0.027 for the first, 0.0535 ± 0.01 for the second.

Compared with GAUUUCCUCUGGUUCUACUGGGUUACCUAA, CUUAAGGAGUGGAUCUACUGGGAUACCUAA is lower in “pre-steady-state target cleavage rate” value: 0.524 ± 0.046 for the first, 0.0179 ± 0.0072 for the second.

Going from GAAUUGCUCUGGAUCUUCUGGGUUACCUAA to CUUAAGCUCUGCAUCUUCUGGGUUACCUAA, the “pre-steady-state target cleavage rate” value rises from 0.0512 ± 0.017 to 0.122 ± 0.017.

First: CUUAAGCUUGGAUCUACUGGGUUACCUAA
Second: CAAAUCCUCUGGAUCAACUGGGUUACCUAA
The “pre-steady-state target cleavage rate” value of the first is lower: 0.22 ± 0.024 for the first, 0.458 ± 0.052 for the second.

CUUAAGGAGACCUACUACAGCGUUACCUAA was tested, and the “pre-steady-state target cleavage rate” value was 0.00678 ± 0.0028.

From the supplement of paper PMC10338343
